# In PubChem BioAssay AID463173 (ICCB-Longwood Screening Facility, Harvard Medical School, 2010):
# The campaign covered roughly 52,000 compounds. About 4,300 (8.3%) were called active. Rule as the data show it: active = survival mostly below about 52% (no sharp cut-off); inactive = mostly above about 56%. Some of the results follow.
# Tested on: DeltatarO mutant
# Assay: growth inhibition of S. aureus wild type versus tarO mutant, primary screen, teichoic acid synthesis inhibitors, RN4220, OD600 (AID 463173)
# Details: OD600, 18 h, hits give low values, screened at 18.75 µg/mL (by protocol)
row,SMILES,survival
1,Cc1ccc(COC(=O)c2[nH]c3c(c2C)C(=O)CC(c2ccc(N(C)C)cc2)C3)cc1 (stereo not drawn),inactive: 77%
2,COc1ccc2nc(SC)c(C#N)cc2c1,inactive: 82%
3,CCS(=O)(=O)c1ncc(Cl)c(C(=O)Nc2ccccc2)n1,inactive: 52%
4,CC(=O)c1ccc(NC(=O)c2ccc(-n3cnnc3)cc2)cc1,inactive: 65%
5,CCC(=O)N1c2ccccc2CC1C(=O)NCc1ccc(N(C)C)cc1 (stereo not drawn),inactive: 74%
6,CC(C)C(=O)N(c1nnc(-c2ccncc2)s1)C(C)C,inactive: 95%
7,Cc1ccc(N=C2NC(=O)CC(C(=O)Nc3cc(C(F)(F)F)ccc3Cl)S2)cc1 (stereo not drawn),inactive: 69%
8,Cc1ccc(N(CC(=O)Nc2cc(C)ccc2C)S(=O)(=O)c2c(C)noc2C)cc1,inactive: 62%
9,CCN(CC)c1nc2c(c(=O)n(Cc3ccccc3)c(=O)n2C)n1Cc1ccccc1,inactive: 93%
10,Cc1ccc(C(=O)NCCc2ccc(S(N)(=O)=O)cc2)cc1-n1cnc2cccnc21,inactive: 90%
11,Cc1cccc(C(=O)n2nc(-c3cccnc3)nc2NCc2ccccc2)c1,inactive: 94%
12,CCn1cc(C(=O)NCCCOC)c(=O)c2cc(S(=O)(=O)N3CCCC3)ccc21,inactive: 92%
13,Cc1ccc(NC(=O)Nc2ccccc2OCc2cc(=O)n3ccccc3n2)c(Cl)c1,inactive: 73%
14,COC(=O)c1c(NC(=O)Cc2coc3ccc(C(C)C)cc23)sc2c1CCC2,inactive: 102%
15,CCOc1ccc(C(=O)c2oc3ccccc3c2NC(=O)c2cc(-c3ccc(Cl)cc3)on2)cc1,inactive: 95%
16,COc1ccc(-c2nnc(SCC(=O)N(C)C3CCCCC3)o2)cc1OC,inactive: 86%
17,O=c1oc2c3c(ccc2c2ccccc12)OCN(Cc1ccccc1Cl)C3,inactive: 68%
18,CN(Cc1ccccc1)c1ncnc2c1nnn2C,inactive: 72%
19,O=S(=O)(NCC(c1ccco1)S(=O)(=O)c1cccs1)c1ccc(Cl)cc1 (stereo not drawn),inactive: 92%
20,CCCn1c(=N)n(CC(=O)C(C)(C)C)c2ccccc21,inactive: 91%

row,SMILES,survival
1,COC(=O)c1sccc1S(=O)(=O)N(CC(=O)Nc1ccccc1F)c1ccccc1,inactive: 70%
2,CCc1nn(CC(=O)N(C)Cc2ccccc2)c(=O)c2cc3sccc3n12,inactive: 113%
3,CC(=O)c1cccc(NS(=O)(=O)c2cc(-c3cnc(C4CC4)o3)ccc2C)c1,inactive: 97%
4,Cc1ccc(CSCCC(=O)NCc2ccc(F)cc2Cl)cc1,inactive: 118%
5,CCn1nc(C)c(CCN(C)C(=O)Nc2cc(Cl)ccc2C)c1C,inactive: 85%
6,COc1ccc(CNC(=O)C(c2cccs2)N(Cc2cccs2)C(=O)Cc2cccs2)cc1 (stereo not drawn),inactive: 80%
7,CCNC(=O)Cc1ccc(NC(=O)N2CCCCc3ccccc32)cc1,inactive: 74%
8,CCN(CC)c1nn2c(=O)c(C(=O)NCc3ccc(F)cc3)cnc2s1,inactive: 92%
9,CCCn1c2ccccc2c2cnn(CC(=O)NCCc3ccc(OC)cc3OC)c(=O)c21,inactive: 88%
10,Cc1nc(-c2ccccc2)sc1CCNS(=O)(=O)c1ccc(Br)cc1,inactive: 119%
11,COc1ccccc1CCNC(=O)C(=O)NCC(c1ccco1)S(=O)(=O)c1ccc(C)cc1 (stereo not drawn),inactive: 126%
12,O=C(O)CSc1ccc(Oc2ccc(SCC(=O)O)cc2)cc1,inactive: 102%
13,Cc1cc(C)c(S(=O)(=O)NCC(c2cccs2)S(=O)(=O)c2ccccc2)c(C)c1 (stereo not drawn),inactive: 144%
14,Cc1ccc(NCc2nc3ccccc3n2CCOc2ccccc2)cc1,active: 3%
15,CCCCn1c(CNC(=O)c2ccc(OC)cc2)nnc1SCC(=O)Nc1ccc(OC)cc1,inactive: 76%
16,Cc1cc(NC(=O)Nc2nc3c(s2)CCCCCC3)ccc1Br,inactive: 99%
17,CCC(=O)N1CCc2cc(S(=O)(=O)CCC(=O)NCc3ccccc3OC)ccc21,inactive: 81%
18,Cc1ccc(CNC(=O)CCS(=O)(=O)c2cc(Br)cc3c2N(C(=O)C2CC2)CC3)cc1,inactive: 131%
19,O=C(Nc1ccc(Cl)cc1)N1CCN(c2ccc3nnc(-c4ccc(F)cc4)n3n2)CC1,inactive: 68%
20,CC1CCN(c2ccc(-c3nc(C(C)C)no3)cc2[N+](=O)[O-])CC1,inactive: 48%

row,SMILES,survival
1,N#Cc1ccccc1CSc1nc(N)cc(N)n1,inactive: 106%
2,CCN(CC)CCNC(=O)c1ccc(Cn2c(=O)c3cccn3c3cccnc32)cc1,inactive: 65%
3,Cc1ccc(-n2ncc(C(=O)NCCc3ccsc3)c2C2CCN(C(=O)OC(C)(C)C)CC2)cc1C,inactive: 77%
4,Cc1nc2ccccc2c(=O)n1-c1ccc(NC(=O)C(F)(F)F)cc1,inactive: 74%
5,Cc1cc(NC(=O)CSc2ncc(C(=O)Nc3ccc(F)cc3)c(=O)n2C)no1,inactive: 80%
6,COc1ccc2nc3oc(C(=O)NCc4ccccc4OC)cc3cc2c1,inactive: 103%
7,NC(=O)CSc1ncc2c(n1)-c1ccccc1N(Cc1cccc(F)c1)S2(=O)=O,inactive: 100%
8,COc1ccccc1-c1nnc(C2CCN(C(=O)c3ccc(C)cc3)CC2)o1,inactive: 91%
9,COc1ccc(-c2noc(-c3nnn(-c4cc(C)ccc4C)c3N)n2)cc1,inactive: 81%
10,CC1(C)CC(=O)c2c(oc3c(Cl)cc(NS(=O)(=O)c4ccc(Cl)cc4)cc23)C1,inactive: 64%
11,CN(C)S(=O)(=O)c1ccc2c(c1)N(CC(=O)N1CCN(c3ccc(F)cc3)CC1)CCS2,inactive: 94%
12,N#C/C(=C\c1cn(Cc2ccc(C#N)cc2)c2ccccc12)C(=O)NCc1ccco1,inactive: 67%
13,C=Cc1ccc(Cn2c(C(=O)O)c(CNCc3cc(Br)ccc3OC)c3ccc(C)cc32)cc1,inactive: 97%
14,Cc1cccc(N2CCN(C(=O)CS(=O)(=O)c3cccc4nsnc34)CC2C)c1 (stereo not drawn),inactive: 67%
15,CCCN1C(=O)C2(c3ccccc31)c1c(oc3ccccc3c1=O)C(=O)N2CCO (stereo not drawn),inactive: 93%
16,O=C(CC(NCc1cccnc1)C(=O)O)Nc1ccc(F)cc1 (stereo not drawn),inactive: 77%
17,O=c1oc2ccc(Br)cc2cc1-c1csc(-c2ccc(Cl)cc2)n1,inactive: 94%
18,CCCNC(=O)c1ccc(-n2c(-c3ccccc3)cc3c2CCC(C)C3)cc1 (stereo not drawn),inactive: 95%
